Results from the supplement of paper PMC11417369.
The list shows a part of the results.

system: PfSIP2 AP2 domain 1 (GST-tagged); experiment: gcPBM binding intensity (ln(normalized median fluorescence intensity)); higher = stronger DNA binding
Procedure, shortened: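 The highest Masliner-normalised natural-log median intensity across replicate spots of either probe orientation is reported as binding intensity. GST-tagged P. falciparum DNA-binding domains expressed in E. coli were applied for 1 h to an Agilent 4 × 180k array of primer-extended double-stranded 36-bp intergenic genomic probes plus negative controls, and bound protein was detected with Alexa488 anti-GST antibody and scanned at 488 nm.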

| Sequence | gcPBM binding intensity (ln) |
| --- | --- |
| CAAACATTTTAATGTACACACACCCACAGACAAACA [CACACA_site5522] | 7.51 |
| TTCTTTTTGAAATATTAACACACATTTTGTTAATTA [CACACA_site9337] | 6.96 |
| AGGAATTTATAAAATTGTACTTTTAATTACCTACAG [XGTACX_site3153] | 7.03 |
| AATTTTCTACAAATGTGTACTAAATAAAATATTACT [XGTACX_site7175] | 7.1 |
| TTTTTCTGTTCTTTTTGTACTTAAATATATTTATTT [XGTACX_site5658] | 7.01 |
| ACAATGAGGATATATACACACATACATTAAAAAAAT [CACACA_site6955] | 7.07 |
| ATGTGTGTATTTTATAGTACAGTTACAAGCATTTTT [XGTACX_site6351] | 7.34 |
| AAAAAAGAAAAAAGGACACACATAAATATACACCCG [CACACA_site5590] | 7 |
| AGAATATAATTTTTATGTACATATATTAAATATATT [XGTACX_site8521] | 6.95 |
| CACAAAAATAAACACACACACATATATATATATATA [CACACA_site4704] | 9.37 |
| TCATAAAATATGTTTTGTACATAAAATTAAACAAGT [XGTACX_site1763] | 6.97 |
| AAATAAGAGAAAATATGTACATACATATATTTATAT [XGTACX_site6210] | 6.99 |
| AAATATAAATAAAGATGTACATTATCTATATGTGAT [XGTACX_site4863] | 7.01 |
| AATACGTTTATATATTGTACGTTATATATATATATA [XGTACX_site7452] | 9.42 |
| TAAGTTCGAATTACTTAAATATTGATTTTTTTAAAA [TGCATGCA_negctrl_site114] | 6.55 |
| AAGAAAAGCAAACAAGTGCATAATAACAAAAAAAAT [GTGCAC_site9725] | 8.52 |
| TATTTATTTATAAACACACAAATATTTTTATTTATA [CACACA_site6889] | 6.8 |
| TTTTTTTTTTTTAGAGTACACACTTTTTTACATTTA [CACACA_site3836] | 6.96 |
| GTTGAAAATACAGAACGTACACGTTTGCCATATTGT [XGTACX_site2254] | 6.87 |
| TATGAAATGCTCCAATCACACATGAATGTAATATAT [CACACA_site5458] | 6.74 |
| ATATGATTTATAAAGTGTACCTTATTATAAGAAACA [XGTACX_site7914] | 7.1 |
| ACTTTTATTATTTATATACACACTTGCTGAAATGTT [CACACA_site3637] | 7.46 |
| AGTTATAAAATATTTGCATGTAAATATATTATCTAT [TGCATGCA_site1015] | 6.87 |

| Sequence | gcPBM binding intensity (ln) |
| --- | --- |
| ATATTTATATTTATGTGTACATATGAAATAATTATT [XGTACX_site7765] | 7.26 |
| TAATATATTATGAGGGGTACATAATATGGTTTATTG [XGTACX_site8301] | 7.12 |
| CTAAGAAGTATTTACACACCAACAAGGCGAAAAAAA [CACACA_site2945] | 6.92 |
| ATATCTTATATCTTCACACATACACAATAAATACAT [CACACA_site5028] | 7.24 |
| AATGTATTCTCTCATGCACACTTTCTTTAAGGGACC [CACACA_site5245] | 8.45 |
| TAAGATGATATAGACTGTACATATTGAACTTACAAG [XGTACX_site4290] | 6.91 |
| ATTCATATTAAATATATATATATATATATATATATA [CACACA_negctrl_site484] | 9.58 |
| TAATATATTAATTTTTGTACTTAATTATATGTTTTT [XGTACX_site5654] | 6.75 |
| GTTTTTAAATATGCCATACACACTACTATATAATAA [CACACA_site1927] | 7.16 |
| GAAGAAAAAGAAAAAAGTACATATATTATATTATAA [XGTACX_site7870] | 6.73 |
| TTCTAAATTAATAATACACACTTGCTAAAATCATTA [CACACA_site5733] | 6.75 |
| TTTATTTTATCATTTGCACACGCACCCCCACATAAA [CACACA_site8007] | 11.5 |
| ATTCTCCATGTTTGATGTACTCATATGACGACGGAG [XGTACX_site4923] | 7.21 |
| ATATAAATAACGTGTACACACATATGTATTTATATA [CACACA_site6520] | 7.4 |
| TTCTTATATTGTACAGTACACACCTTTATAATGTTA [CACACA_site7953] | 7.49 |
| AATATTTCTATATGAACATGCAATGTATCTTTTTAT [TGCATGCA_site738] | 6.77 |
| TTTTTATGATTATACTTATATAATTTCATGATTGAA [CACACA_negctrl_site228] | 6.78 |
| AATACTTACCAAAATACACACACACCCAAAATATAT [CACACA_site8559] | 7.21 |
| ATTTTTATTTTATATACACACAATAATACTAGAATA [CACACA_site7810] | 7.21 |
| ATATATATCTACATATGTACATATATACATTACACA [XGTACX_site7210] | 7.21 |
| AGATATATAAAATATACACACAGTAATATTTATATA [CACACA_site6767] | 6.88 |
| ATTTCATATGGTCAACGTACTCATGCATCCCTCCTT [XGTACX_site437] | 6.86 |
| AATTATATTTGAAATACACACATAAAAACCATATAG [CACACA_site7598] | 7.19 |

| Sequence | gcPBM binding intensity (ln) |
| --- | --- |
| TCAAAAAAGACACACCGTACATACTATTTGGACAGG [XGTACX_site7699] | 7 |
| ATATATATATATATATGTACATATTTACATTTTGTA [XGTACX_site3529] | 9.59 |
| TATACACATTCGCGTTGTACAAAAAAAAAAAAAAAG [XGTACX_site2880] | 7.14 |
| AATAAAGGAGCCTATGAACACACACCGGTACATATA [CACACA_site9352] | 6.65 |
| ATAATAATAGTAATATGTACATATATATATATATAT [XGTACX_site7437] | 9.47 |
| ATAAAAAAAAGAAAAACACACACATATATATATATA [CACACA_site8243] | 9.42 |
| AAGATGAACCTTTACACATGCAACAAAAAATATACA [TGCATGCA_site166] | 7.25 |
| ATCAACATTATGTTTAGTACTTAGTGAATTGTTAAT [XGTACX_site4913] | 6.93 |
| GAATTTTTGACGATATAGGAAATAATTATCCTGAAG [XGTACX_negctrl_site61] | 6.78 |
| CTGTTAATTATATATTGTACAAAAGATATGATTATA [XGTACX_site6927] | 7.03 |
| AAATAAAGAATATAAATACACACTTAAATATATATT [CACACA_site4007] | 6.73 |
| ATTTATATATTTATATGTACATATCTATACATATAT [XGTACX_site7580] | 7.19 |
| TTTTTAAAAAAAAAAAAATAAAAAAAAAAAAAATAT [XGTACX_negctrl_site7] | 6.76 |
| ATAATAAAATAAATCACACATAATATAATGTAATAT [CACACA_site6144] | 6.98 |
| ACAAAAAAATAAAATATATATATATATATAATATAT [CACACA_negctrl_site805] | 7.9 |
| ATATATATATATATATGTACATATAATTTTTTTTTT [XGTACX_site6948] | 9.47 |
| TTTATATTAATTTGTGTAAATGCATATGATGAGCAT [XGTACX_negctrl_site254] | 7 |
| ATAACAATTATTTATCTACACACTTTTATGTTATTT [CACACA_site7886] | 7.09 |
| TAAATTTTTTTTTTGATGCACTTAGTTATTATATTT | 8.14 |
| AATGGCAAAATAGGCACACACACATATACAGATATA [CACACA_site4726] | 7.02 |
| ATTAAGTCTTATATTACACACGACATTGTAATGTAA [CACACA_site528] | 6.76 |
| AATTTTTTATACACAAGTACAAACGCGTAGTCACTT [XGTACX_site2458] | 6.77 |
| ATTCCACTGTTTTAGTGTACTGGTCGTTTTTTTTTT [XGTACX_site1738] | 6.78 |

| Sequence | gcPBM binding intensity (ln) |
| --- | --- |
| AAAAATAAAACAATTACACACATAATTTTATTTTTA [CACACA_site928] | 6.86 |
| TCCAAAATATCCTTCACACACGAACAGTTTCATTTA [CACACA_site5511] | 6.89 |
| AAAAAAATTCTTGGCGCACACACTTTAAAAATTAAA [CACACA_site597] | 7.25 |
| AAGGATTACAAAAAAAGTACAAATGGATTTTTTCCC [XGTACX_site8905] | 6.84 |
| CTTACAAATAAACAACGTACTTATTCGAATTATGCT [XGTACX_site2431] | 6.92 |
| CATACAGACGAACACACACACATATAAATATAAATA [CACACA_site6443] | 7.27 |
| AACCACATGGTGTAATGTACATTACCTTAACAATAA [XGTACX_site3055] | 6.91 |
| AAATATTATATATATACACACACACCGGCATGCACA [CACACA_site7916] | 8.72 |
| TATAATAAAATTGGTAGTACATTAATTTATGTATAG [XGTACX_site3059] | 7 |
| TATTATTTTTTTTTTTGTACATATATGTATATATAT [XGTACX_site8471] | 7.51 |
| AAATGCGCCATGTGTACACATATATATATATATATA [CACACA_site4649] | 9.67 |
| TACATATATAAAAATTGTACACTTCATAAGAAAAAA [XGTACX_site4347] | 6.99 |
| TTAAATAAGTTCTTCACACATATATATATATATATA [CACACA_site4742] | 9.46 |
| GTTTTAAAATTAAATATTATGGCATAATTCAAGAAA [GTGCAC_negctrl_site721] | 7.01 |
| AAAATTTTTTAACACTGTACTTGTAATATTAAAACT [XGTACX_site8369] | 7.11 |
| ATTCCCTTAAGAAACTGTACAAAACTTTCTTCGATT [XGTACX_site775] | 6.97 |
| GTGTGTGTATATATTTGTACATATATTTAAACATAT [XGTACX_site1074] | 8.11 |
| TATACATAAATTATATGTACTGAAAATACATAATTA [XGTACX_site3626] | 6.94 |
| GGTAGGTGGATATATACACACATATATTATAGATAT [CACACA_site7021] | 7.28 |
| CACAGATATATACATACACACATATATACACATATA [CACACA_site6323] | 7.3 |
